# Experimental data: PubChem BioAssay AID445 (National Center for Advancing Translational Sciences (NCATS), 2006)
# About 40 (0.04%) of roughly 110,000 compounds were called active. The inconclusive results got no clear call from the source; some entries with a clear call stand among them for comparison. Calls follow the shape of the dose curve; as a rule, active = well fitted curve in the direction sought with a large enough effect in the signal ratio (not every such curve was filed as active); inconclusive = small, poorly fitted or top-dose-only effect, or a change in a side signal; inactive = flat fitted curve, though single readings scatter; the % refers to the signal ratio. A potency beside an inconclusive call is a rough fit, not a confirmed value.
# Assay: IkB Signaling;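 as to IkBa stabilization activation: 0% = basal untreated cells and 100% = reference inhibitor full response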
# Settings: ABC-DLBCL IkBa-CBG/CBR dual luciferase ratio (green luciferase fused to IkBa over red control in OCI-Ly3 lymphoma cells), 4 h; IkBa stabilization activation: at 57.1 µM (top of the series), scaled: untreated 0%, proteasome inhibitor 100% unless noted
# Procedure, shortened: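 In this assay, an IκBα–CBG68 fusion accumulates when IKK-driven degradation is blocked; native CBR normalizes for cell number. OCI-Ly3 cells were treated 4 h with compound and doxycycline, then green and red light read after Chroma-Glo addition.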
# Potency is read from the fitted curve at half-maximal effect.
SMILES,IkBa stabilization activation,Potency
COc1ccc(CCN2C(=O)N(c3ccc(F)cc3)C(=O)C2CC(=O)Nc2ccc(OC)cc2)cc1 (configuration not stated),inconclusive: -0.772% [signal inhibitor],–
NC1=CC(=O)c2cccc3cccc1c23,–,"inconclusive: 31.6 µM [rising, single point]"
CCCCC1C(=O)N(c2ccccc2)N(c2ccccc2)C1=O,inconclusive: 12.5% [signal activator],–
Cc1ccc(-n2nc3c(N4CCC(C(=O)NCCc5ccccc5C)CC4)nnc(C)c3c2C)cc1,inconclusive: 0.656% [signal inhibitor],–
Cc1ccccc1-c1nc(CS(=O)(=O)CC(=O)NCc2ccccc2)c(C)o1,inactive,–
O=C(CSc1ncnc2c1oc1ccccc12)c1cccs1,inactive,–
CN(C)c1cc2c(cc1NC(=O)c1ccc(F)cc1)n(C)c(=O)n2C,inactive,–
Nc1nc(SCc2ccccc2)c2ncn(Cc3ccccc3)c2n1,"inactive: 3.12% [at 11.4 µM, scaled: untreated 0%, proteasome inhibitor 100%]",–
CCOc1ccc(CNC(=O)c2ccc(NC(=O)N3CCSc4ncccc43)cc2)cc1OC,inconclusive: 0.842% [signal inhibitor],–
Cc1cccc(-c2nnn3c2nc(NCc2ccccc2)c2ccccc23)c1,inconclusive: 2.06% [signal inhibitor],–
Cc1cc2c(cc(C(=O)OCC(=O)NCc3cccs3)n2C(C)C)o1,inconclusive: 11.2% [signal inhibitor],–
CC(=O)Nc1nc2ccccc2n1CCOc1ccccc1,–,"inconclusive: 31.6 µM [rising, single point]"
O=c1c(-c2cccs2)nc2cnc(N3CCOCC3)nc2n1CCc1ccccc1,"inactive: 1.09% [at 11.4 µM, scaled: untreated 0%, proteasome inhibitor 100%]",–
CNC(=O)C1CCN(Cc2cc3ccccc3n2Cc2cccc(C)c2)CC1,inconclusive: 1.3% [signal inhibitor],–
CCOC(=O)c1cnc2ccc(C(=O)OC)cc2c1Nc1ccc(N2CCOCC2)cc1,inactive,–
CCOc1ccc(CCNC(=O)c2ccc(CS(=O)(=O)c3ccccc3C)o2)cc1OCC,inconclusive: -1.26% [signal inhibitor],–
CSCCC(NS(=O)(=O)c1cccs1)C(=O)Nc1ccc(C)c(Cl)c1 (configuration not stated),inconclusive: 2.46% [signal inhibitor],–
COC(=O)c1ccc(Cn2c(SCC(=O)NCc3ccccc3)nc3ccccc32)cc1,inconclusive: -1.62% [signal inhibitor],–
CCc1ccccc1Nc1ncnc2c1cnn2-c1ccc(Cl)cc1,inconclusive: 0.768% [signal inhibitor],–
OCCN(CCO)c1ncnc2nc[nH]c12,"inactive: 0.0952% [at 11.4 µM, scaled: untreated 0%, proteasome inhibitor 100%]",–
COc1ccc(OC)c(NC(=O)Cc2c(C)n(C(=O)c3ccc(Cl)cc3)c3ccc(OC)cc23)c1,inconclusive: 6.95% [signal inhibitor],–
CC(=O)c1cccc(NC(=O)CN2C(=O)c3cccnc3Sc3ccccc32)c1,inconclusive: 6.72% [signal inhibitor],–
CCc1ccc(NC(=O)Cn2c(=O)n(-c3ccccc3)c(=O)c3ccc(C(=O)NCc4ccc5c(c4)OCO5)cc32)cc1,inactive,–

SMILES,IkBa stabilization activation,Potency
O=C(O)c1ccc(COc2ccccc2Cl)cc1,inactive,–
CCc1ccccc1NC(=O)c1sc2nc3n(c(=O)c2c1C)CCC3,inconclusive: -1.58% [signal inhibitor],–
CCOc1ccccc1NC(=O)c1ccc2c(Cl)c3c(nc2c1)CCCC3,–,"inconclusive: 12.6 µM [signal inhibitor, partial curve]"
O=C(Nc1cccc2cccnc12)[C@@H]1[C@@H](C(=O)O)[C@H]2CC[C@@H]1O2,"inactive: 1.15% [at 11.4 µM, scaled: untreated 0%, proteasome inhibitor 100%]",–
COc1cccc(CNc2nc3c(-c4cccc(C)c4)nnn3c3ccccc23)c1,inconclusive: 16.7% [signal inhibitor],–
CCOc1ccc(-c2nnc(SCC(=O)NCCc3ccccc3)nc2-c2ccc(OCC)cc2)cc1,inconclusive: 0.883% [signal inhibitor],–
CC(=O)c1cccc(NC(=O)c2c(C)nn(-c3ccc(F)cc3)c2-n2cccc2)c1,inconclusive: -0.00833% [signal inhibitor],–
CCCCCN1C(C(=O)c2ccccc2)=C(NC(C)=O)c2ccccc2S1(=O)=O,inconclusive: -0.252% [signal inhibitor],–
O=C(CSc1ncc2c(n1)-c1cc(Cl)ccc1N(Cc1ccccc1F)S2(=O)=O)Nc1cccc(C(F)(F)F)c1,inconclusive: 2.15% [signal inhibitor],–
CCOC(=O)c1ccc(NC(=O)CSc2nccn2Cc2ccc(OC)cc2)cc1,inactive,–
Cc1nn(-c2ccccc2)c2nc(C3CC3)cc(C(=O)NCc3ccccc3Cl)c12,inactive,–
COc1cccc2c1[C@H](CO)N1[C@H](C#N)[C@@H]3C[C@H](C(=O)O)[C@@H]([C@@H]1C2)N3C,"inconclusive: -3.09% [signal inhibitor] [at 11.4 µM, scaled: untreated 0%, proteasome inhibitor 100%]",–
Cc1cc(Cl)ccc1OCC(=O)N(Cc1ccc(N(C)C)cc1)CC1CCCO1 (configuration not stated),inconclusive: 2.23% [signal inhibitor],–
O=C(O)c1ccc2c(c1)N(Cc1ccc(F)cc1Cl)C(=O)c1ccccc1S2,inconclusive: 5.17% [signal inhibitor],–
O=C(CSc1nnc(NC(=O)c2ccco2)s1)NC1CCCCC1,inconclusive: 12.9% [signal inhibitor],–
Cc1noc(C)c1Cn1nc(C(=O)O)c2ccccc2c1=O,inactive,–
COc1ccc(NC(=O)CCS(=O)(=O)c2nc(-c3ccc4c(c3)OCO4)cc(C(F)(F)F)n2)c(OC)c1,–,"inconclusive: 6.31 µM [signal inhibitor, single point]"
Cc1ccc(-n2c(C)nc3oc4ccccc4c(=O)c3c2=O)cc1,–,"inconclusive: 1 µM [signal inhibitor, partial curve]"
N#Cc1c(/N=C/c2cccs2)sc2c1CCC2,inactive,–
CCOC(=O)c1ccc(NC(=O)CSc2nc(SC)ns2)cc1,inconclusive: 15.8% [signal inhibitor],–
O=C(c1cc(-c2ccccc2)on1)N1CCN(C(=O)c2ccco2)CC1,inconclusive: 5.66% [signal inhibitor],–
CCN(C(=O)c1cnc(N2CCOCC2)c2ccccc12)c1cc(C)ccc1C,inconclusive: 5.15% [signal inhibitor],–
O=C(c1ccc2c(c1)N(Cc1ccccc1)C(=O)c1ccccc1S2=O)N1CCC(Cc2ccccc2)CC1 (configuration not stated),inconclusive: 1.28% [signal inhibitor],–

SMILES,IkBa stabilization activation,Potency
CCCOc1ccc(C2=NC(c3ccc(F)cc3)=Nc3ccc(OC)cc3N2)cc1,inconclusive: 1.88% [signal inhibitor],–
O=C(Oc1ccnc2cc(Cl)ccc12)N1CCCCCC1,inconclusive: -1.46% [signal inhibitor],–
Nc1nc(CSc2nc3ccccc3[nH]2)cs1,inactive,–
COc1ccccc1CNC(=O)c1ccc2c(c1)CCN2S(=O)(=O)c1ccc(Cl)cc1,inconclusive: 2.86% [signal inhibitor],–
Clc1ccc(Nc2ncnc3c2cnn3-c2ccccc2)cc1,inconclusive: -3.08% [signal inhibitor],–
CCOC(=O)c1c(NC(=O)CC)sc(C(C)=O)c1C,inactive,–
O=S(=O)(O)c1cc(O)c2c(O)c(N=Nc3cccc4ccccc34)c(S(=O)(=O)O)cc2c1,"inactive: -1.98% [at 11.4 µM, scaled: untreated 0%, proteasome inhibitor 100%]",–
Cc1cccc(S(=O)Cc2ccc(C(=O)NC3CCCCCC3)o2)c1 (configuration not stated),inconclusive: 1.72% [signal inhibitor],–
CCn1c(C(=O)N2CCCC(C(=O)NCCCc3ccccc3)C2)cc2sccc21 (configuration not stated),inconclusive: 4.1% [signal inhibitor],–
Cc1c(-c2ccccc2)n(-c2ccccc2O)c2nc3c(c(=O)n(C)c(=O)n3C)n12,inconclusive: 2.06% [signal inhibitor],–
Clc1ccc(Nc2c(-c3ccccc3Cl)nc3ccc(Cl)cn23)cc1,inconclusive: 1.87% [signal inhibitor],–
Cc1ccc(C(=O)Nc2cccc(C(=O)OCc3cc(=O)n4nc(C5CC5)sc4n3)c2)cc1,inconclusive: 19.3% [signal inhibitor],–
Cc1ccc(-n2c(N)c(-c3nc4ccccc4n3C)sc2=S)cc1,inactive,–
COCC(C)Nc1ncnc2c1cnn2-c1ccc(C)c(C)c1 (configuration not stated),inconclusive: 0.526% [signal inhibitor],–
O=C(O)Cc1[nH]cnc1C(=O)O,"inactive: -0.71% [at 11.4 µM, scaled: untreated 0%, proteasome inhibitor 100%]",–
O=S(=O)(NC1CC2CCC1C2)c1ccc2c(c1)OCCO2 (configuration not stated),inactive,–
CCOc1ccc(N2CC(NC(=O)C3CC3)CC2=O)cc1 (configuration not stated),inconclusive: -1.5% [signal inhibitor],–
CCCn1c2ccccc2c2nnc(SCC(=O)OC)nc21,inactive,–
COc1ccc(-n2nc(C(=O)NCc3ccc(F)cc3Cl)c3c4ccccc4n(C)c3c2=O)cc1Cl,inactive,–
Cc1ccnc(NC(=O)CSc2cc(=O)n(C)c3ccccc23)c1,inconclusive: -0.543% [signal inhibitor],–
CCCCN(CC)CCCNC(=O)Cn1ncc2c3ccccc3n(Cc3ccc(F)cc3)c2c1=O,inconclusive: 1.04% [signal inhibitor],–
